# The whole screen tested about 310,000 compounds, of which about 2,200 (0.71%) showed an effect of 50% or more. Effects have a minus sign here. The list shows a part of the results.
# Target: human ether-à-go-go-related gene (hERG) potassium channel (human, UniProt Q12809)
# Test: primary screen, population patch clamp on CHO cells stably expressing hERG
# Sequence of human ether-à-go-go-related gene (hERG) potassium channel (Q12809 whole entry, looked up): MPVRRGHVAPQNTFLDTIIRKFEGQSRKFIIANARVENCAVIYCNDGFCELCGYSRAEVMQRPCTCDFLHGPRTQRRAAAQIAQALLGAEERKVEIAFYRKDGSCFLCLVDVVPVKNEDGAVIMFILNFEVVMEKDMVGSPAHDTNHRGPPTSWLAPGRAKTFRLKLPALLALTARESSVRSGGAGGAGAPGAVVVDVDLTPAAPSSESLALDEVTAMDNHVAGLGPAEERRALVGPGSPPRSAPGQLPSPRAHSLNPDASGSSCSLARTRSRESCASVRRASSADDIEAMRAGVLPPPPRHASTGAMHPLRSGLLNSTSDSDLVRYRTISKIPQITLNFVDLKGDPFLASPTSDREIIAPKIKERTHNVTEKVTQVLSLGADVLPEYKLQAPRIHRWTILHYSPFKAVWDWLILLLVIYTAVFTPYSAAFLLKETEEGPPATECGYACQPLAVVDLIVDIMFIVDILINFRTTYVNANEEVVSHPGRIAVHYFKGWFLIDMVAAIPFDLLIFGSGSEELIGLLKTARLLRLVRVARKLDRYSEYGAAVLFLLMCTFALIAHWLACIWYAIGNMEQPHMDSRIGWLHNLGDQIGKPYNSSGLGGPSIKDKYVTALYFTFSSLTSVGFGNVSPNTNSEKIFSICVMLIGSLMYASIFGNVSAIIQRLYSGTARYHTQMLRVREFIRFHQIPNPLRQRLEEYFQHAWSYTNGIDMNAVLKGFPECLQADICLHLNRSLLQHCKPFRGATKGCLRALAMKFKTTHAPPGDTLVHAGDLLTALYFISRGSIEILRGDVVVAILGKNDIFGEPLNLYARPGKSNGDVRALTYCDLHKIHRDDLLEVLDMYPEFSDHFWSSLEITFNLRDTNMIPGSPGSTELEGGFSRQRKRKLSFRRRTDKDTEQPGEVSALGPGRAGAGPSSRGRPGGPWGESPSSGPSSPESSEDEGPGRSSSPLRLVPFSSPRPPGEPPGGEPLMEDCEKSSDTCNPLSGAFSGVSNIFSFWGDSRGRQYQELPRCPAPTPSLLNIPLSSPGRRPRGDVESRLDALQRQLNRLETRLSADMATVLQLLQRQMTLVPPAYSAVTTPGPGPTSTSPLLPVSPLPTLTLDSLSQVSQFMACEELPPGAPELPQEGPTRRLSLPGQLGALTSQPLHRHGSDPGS
row,Structure (SMILES),"hERG current change (%, negative = inhibition) at 1uM [%]"
1,Cc1nc(NCCc2ccc(O)cc2)c2nnn(Cc3ccccc3)c2n1,3.8
2,CCN(C(=O)c1cc(S(=O)(=O)N2CCOCC2)cn1C)c1cccc(C)c1,-15.6
3,CCOCCCNC(=O)N[C@@H](Cc1ccccc1)C(=O)OC,14.4
4,C=CCN(CC=C)C(=O)C1CCN(Cc2ccc(OCc3ccccc3)cc2)CC1.O=C(O)C(=O)O,-40.6
5,COc1ccc(C(=O)Cn2nnc(-c3ccccc3NC(=O)c3ccco3)n2)cc1,3.17
6,O=C(Cc1cccs1)Nc1ccc(F)c(F)c1,18.1
7,O=C(CSc1nnnn1C1CCCC1)N1CCN(C(=O)c2ccco2)CC1,8.87
8,O=C(Nc1ccc2nc3n(c(=O)c2c1)CCCCC3)c1cc([N+](=O)[O-])ccc1F,-0.984
9,O=C(c1ccccc1)c1ccc(N=Nc2c(O)[nH]c(=O)[nH]c2=O)cc1,11.4
10,CCOC(=O)c1cnc(SCC(=O)c2ccccc2)nc1N,8.55
11,Cn1cc(S(=O)(=O)N2CCC(Cc3ccccc3)CC2)c(=O)n(C)c1=O,3.02
12,COc1cc(OC)cc(C(=O)N2c3ccc(F)cc3CCC2C)c1 (centres unmarked),20.1
13,O=[N+]([O-])c1ncccc1OCc1ccc(Cl)c(Cl)c1,9.43
14,CC(=O)c1cccc(NC(=O)Nc2ccc3c(c2)OCO3)c1,12
15,O=C(Nc1ccc2c(c1)OCCO2)c1ccccc1,10.3
16,O=[N+]([O-])c1cc(C(F)(F)F)ccc1NCCc1ccncc1,14
17,O=C(CN1C(=O)NC2(CCCC2)C1=O)Nc1nc2c(F)cc(F)cc2s1,2.33
18,Cc1ccc(-c2c[n+](CC(=O)Nc3c(C)cccc3C)c3n2CCC3)cc1.[Cl-],7.88
19,CCc1cc(C)cc(OCCNC(=O)c2ncn[nH]2)c1,13.9
20,Cc1cccc(C(=O)Nc2sc(-c3ccccc3)cc2C(=O)O)c1,2.46
21,COC(=O)c1cn(Cc2cccnc2)c(=O)c2ccccc12,12.8
22,O=C(CSc1nc(=O)n2ccccc2n1)OCc1ccccc1,2.37

row,Structure (SMILES),"hERG current change (%, negative = inhibition) at 1uM [%]"
1,O=C(CSCc1c(F)cccc1Cl)NCc1ccco1,16.7
2,O=C(CNS(=O)(=O)c1cccc(Cl)c1)OCc1csc(-c2ccccc2)n1,2
3,COc1ccc(/C=C2/C(=O)NC(=O)N(c3ccc(C)c(C)c3)C2=O)cc1CN1C(=O)c2ccccc2C1=O,-3.04
4,COc1ccc(CNCCNC(=O)c2nonc2N)cc1OC.Cl,16.5
5,COC(=O)Nc1ccc(S(=O)(=O)Nc2cc(OC)nc(OC)n2)cc1,7.33
6,O=C(NCc1ccccc1)C1=C[C@H](C2CCCCC2)C[C@H](OCc2ccc(CO)cc2)O1,8.77
7,CC(C)CNC(=O)c1ccc2c(c1)C(=O)N(Cc1ccco1)C2=O,1.79
8,O=C(NCCc1ccccc1)C1CCCN1C(=O)Nc1ccccc1 (centres unmarked),15.1
9,COc1cccc(C2CC3(CC(C)(C)NC(=S)N3)Oc3cc(O)ccc32)c1 (centres unmarked),8.7
10,Cc1cccc(C)c1NC(=O)CN(C)CC(=O)N(C)CC(=O)Nc1ccccc1Br,16.6
11,O=C1CC(c2ccc(Cl)cc2)CC(O)=C1C=NCCO (centres unmarked),10.6
12,Cc1nn(-c2ccc(F)cc2)c2sc(C(=O)N3CCCCCC3)cc12,-3.99
13,CN1CCCN(C(=O)c2cc(-c3cccc4ccccc34)nc3ccccc23)CC1.Cl,-27.9
14,CCOC(=O)c1cc(NC(=O)SCC(=O)O)c(C)nc1C,-9.62
15,CCOC(=O)C1CCN(C(=O)c2sc3nc(-c4ccc(F)cc4)cn3c2C)CC1,-22.1
16,CCC(C)(C)n1nnnc1C(C(C)C)N1CCC(C(N)=O)CC1 (centres unmarked),9.79
17,CN(CCNC(=O)C1CCN(S(=O)(=O)c2cnc[nH]2)CC1)Cc1ccccc1,11.1
18,Cl.O=C(OCCN1CCOCC1)C1(c2ccccc2)CCCC1,11.4
19,O=C1CSC(=Nc2cccc([N+](=O)[O-])c2)N1,9.4
20,Cc1ccc(S(=O)(=O)NCCCCC(NC(=O)OC(C)(C)C)C(=O)O)cc1.c1ccc(Nc2ccccc2)cc1 (centres unmarked),14.2
21,COc1ccc(OC)c(C2C(C(=O)c3cccs3)=C(O)C(=O)N2c2cc(C)on2)c1 (centres unmarked),10.7
22,COc1cc2oc3ccccc3c(=O)c2cc1OC,4.09
